Results on 1 molecule are retold here after publication PMC7054686.

Amino acid sequences for entries named in this document (tags omitted). A change or cut given only in a name is not applied to a line headed by its entry. Residues count along the entry.
UniProt O14763, residues 56-440: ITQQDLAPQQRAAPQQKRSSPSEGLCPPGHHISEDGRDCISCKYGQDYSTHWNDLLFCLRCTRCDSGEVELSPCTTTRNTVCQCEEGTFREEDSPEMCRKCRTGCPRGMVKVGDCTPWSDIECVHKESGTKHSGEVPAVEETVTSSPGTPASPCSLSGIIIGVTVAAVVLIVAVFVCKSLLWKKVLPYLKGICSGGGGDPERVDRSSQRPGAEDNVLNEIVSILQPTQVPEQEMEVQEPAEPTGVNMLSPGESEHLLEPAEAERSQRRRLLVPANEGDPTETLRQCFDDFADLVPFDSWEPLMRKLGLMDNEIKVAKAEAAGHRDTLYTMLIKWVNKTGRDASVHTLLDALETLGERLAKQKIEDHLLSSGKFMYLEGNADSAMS

Experiment [1] concerns the target TRAIL‐R2 (human (endogenous in A549, HCT116, DU145, PC3, U20S, HAP1)) (UniProt O14763). In words: co-IP; TRAIL-R2 DISC IP: 75 μl Dynabeads coated with AMG655 (anti-TRAIL-R2; 1×, 2× or 4×) added to 5 × 10^6 cells for the indicated time (30-180 min, HAP1 up to 9 h); lysis in DISC IP buffer (0.2% NP-40, 20 mM Tris-HCl pH 7.4, 150 mM NaCl, 10% glycerol), five washes, Western blot; also after zVAD-fmk, caspase-8 or FLIP siRNA, MS-275, CASP10 or CFLAR knock-out.

The target is the same in experiment [2]. In words: co-IP; TRAIL-R2 DISC IP with AMG655 beads (4×) in CASP8 null cells (A549 30, 60, 180 min; HCT116 CASP8 and CASP8/10 null 90 min; U20S clones).

No constants are given. Whether binding was seen depends on the method and setting. In cells and extracts the contact can be indirect. Some binding calls cover weakened binding; strength is not graded here.

B1: procaspase‐10 (enzyme, UniProt Q92851 1-521)
chain: MKSQGQHWYSSSDKNCKVSFREKLLIIDSNLGVQDVENLKFLCIGLVPNKKLEKSSSASDVFEHLLAEDLLSEEDPFFLAELLYIIRQKKLLQHLNCTKEEVERLLPTRQRVSLFRNLLYELSEGIDSENLKDMIFLLKDSLPKTEMTSLSFLAFLEKQGKIDEDNLTCLEDLCKTVVPKLLRNIEKYKREKAIQIVTPPVDKEAESYQGEEELVSQTDVKTFLEALPQESWQNKHAGSNGNRATNGAPSLVSRGMQGASANTLNSETSTKRAAVYRMNRNHRGLCVIVNNHSFTSLKDRQGTHKDAEILSHVFQWLGFTVHIHNNVTKVEMEMVLQKQKCNPAHADGDCFVFCILTHGRFGAVYSSDEALIPIREIMSHFTALQCPRLAEKPKLFFIQACQGEEIQPSVSIEADALNPEQAPTSLQDSIPAEADFLLGLATVPGYVSFRHVEEGSWYIQSLCNHLKKLVPRMLKFLEKTMEIRGRKRTVWGAKQISATSLPTAISAQTPRPPMRRWSSVS
As to B1, the binding result in experiment [1] is on record as “binds”; in experiment [2], “binds weakly”.
